# Source: the supplement of paper PMC8728848
# The list shows a part of the results.
# Legend:
# Assay in all cases: glycan array binding signal (z-score within array); higher = stronger binding
# Details in all cases: glycan notation: IUPAC condensed, linker removed
# [1] = molecular target: Gal(b1-4)GlcNAc(b1-2)Man(a1-6)[Man(a1-3)]Man(b1-4)GlcNAc(b1-4)GlcNAc
# How it was run: (§1)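 Glycan array data came from 3228 arrays in the Consortium for Functional Glycomics database, and only arrays with an available protein sequence were kept. Glycan names were put into IUPAC-condensed notation, and columns mapping to the same glycan were averaged. The binding signal is a within-array Z-score, averaged across arrays of one protein sequence run at different concentrations or buffers and across linkers. A negative Z-score can be read as non-binding.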
# [2] = molecular target: Gal(b1-4)GlcNAc(b1-2)[Gal(b1-4)GlcNAc(b1-4)]Man(a1-3)[Gal(b1-4)GlcNAc(b1-2)Man(a1-6)]Man(b1-4)GlcNAc(b1-4)GlcNAc
# How it was run: as §1
# [3] = molecular target: Gal(b1-4)GlcNAc(b1-2)[Gal(b1-4)GlcNAc(b1-4)]Man(a1-3)[Gal(b1-4)GlcNAc(b1-2)[Gal(b1-4)GlcNAc(b1-6)]Man(a1-6)]Man(b1-4)GlcNAc(b1-4)GlcNAc
# How it was run: as §1
# [4] = molecular target: Gal(b1-4)GlcNAc(b1-2)[Gal(b1-4)GlcNAc(b1-4)]Man(a1-3)[GlcNAc(b1-4)][Gal(b1-4)GlcNAc(b1-2)Man(a1-6)]Man(b1-4)GlcNAc(b1-4)GlcNAc
# How it was run: as §1
# [5] = molecular target: Gal(b1-4)GlcNAc(b1-2)[Gal(b1-4)GlcNAc(b1-4)]Man(a1-3)[GlcNAc(b1-4)][Gal(b1-4)GlcNAc(b1-2)[Gal(b1-4)GlcNAc(b1-6)]Man(a1-6)]Man(b1-4)GlcNAc(b1-4)GlcNAc
# How it was run: as §1
# [6] = molecular target: Gal(b1-4)GlcNAc(b1-2)[Gal(b1-4)GlcNAc(b1-6)]Man(a1-6)[Gal(b1-4)GlcNAc(b1-2)Man(a1-3)]Man(b1-4)GlcNAc(b1-4)GlcNAc
# How it was run: as §1
# [7] = molecular target: Gal(b1-4)GlcNAc(b1-2)[Gal(b1-4)GlcNAc(b1-6)]Man(a1-6)[Gal(b1-4)GlcNAc(b1-2)Man(a1-3)]Man(b1-4)GlcNAc(b1-4)[Fuc(a1-6)]GlcNAc
# How it was run: as §1
# [8] = molecular target: Gal(b1-4)GlcNAc(b1-2)[Gal(b1-4)GlcNAc(b1-6)]Man(a1-6)[GlcNAc(b1-4)][Gal(b1-4)GlcNAc(b1-2)Man(a1-3)]Man(b1-4)GlcNAc(b1-4)GlcNAc
# How it was run: as §1
# [9] = molecular target: Gal(b1-4)GlcNAc(b1-2)[Gal(b1-4)GlcNAc(b1-6)]Man(a1-6)[GlcNAc(b1-4)][Gal(b1-4)GlcNAc(b1-2)[Gal(b1-4)GlcNAc(b1-4)]Man(a1-3)]Man(b1-4)GlcNAc(b1-4)[Fuc(a1-6)]GlcNAc
# How it was run: as §1
# [10] = molecular target: Gal(b1-4)GlcNAc(b1-3)Gal(b1-3)GalNAc
# How it was run: as §1
# [11] = molecular target: Gal(b1-4)GlcNAc(b1-3)Gal(b1-3)GlcNAc
# How it was run: as §1
# [12] = molecular target: Gal(b1-4)GlcNAc(b1-3)Gal(b1-4)Glc
# How it was run: as §1
# [13] = molecular target: Gal(b1-4)GlcNAc(b1-3)Gal(b1-4)GlcNAc
# How it was run: as §1
# [14] = molecular target: Gal(b1-4)GlcNAc(b1-3)Gal(b1-4)GlcNAc(b1-2)Man(a1-3)[Gal(b1-4)GlcNAc(b1-3)Gal(b1-4)GlcNAc(b1-2)Man(a1-6)]Man(b1-4)GlcNAc(b1-4)GlcNAc
# How it was run: as §1
# [15] = molecular target: Gal(b1-4)GlcNAc(b1-3)Gal(b1-4)GlcNAc(b1-2)Man(a1-3)[Gal(b1-4)GlcNAc(b1-3)Gal(b1-4)GlcNAc(b1-2)Man(a1-6)]Man(b1-4)GlcNAc(b1-4)[Fuc(a1-6)]GlcNAc
# How it was run: as §1
# [16] = molecular target: Gal(b1-4)GlcNAc(b1-3)Gal(b1-4)GlcNAc(b1-2)[Gal(b1-4)GlcNAc(b1-3)Gal(b1-4)GlcNAc(b1-6)]Man(a1-6)[Gal(b1-4)GlcNAc(b1-3)Gal(b1-4)GlcNAc(b1-2)Man(a1-3)]Man(b1-4)GlcNAc(b1-4)GlcNAc
# How it was run: as §1
# [17] = molecular target: Gal(b1-4)GlcNAc(b1-3)Gal(b1-4)GlcNAc(b1-2)[Gal(b1-4)GlcNAc(b1-3)Gal(b1-4)GlcNAc(b1-6)]Man(a1-6)[Gal(b1-4)GlcNAc(b1-3)Gal(b1-4)GlcNAc(b1-2)Man(a1-3)]Man(b1-4)GlcNAc(b1-4)[Fuc(a1-6)]GlcNAc
# How it was run: as §1
# [18] = molecular target: Gal(b1-4)GlcNAc(b1-3)Gal(b1-4)GlcNAc(b1-3)Gal(b1-4)GlcNAc
# How it was run: as §1
binder,measurement,setting,value
PX14343A-bvu-539-29-539 (Bacteroides vulgatus) (protein) DSLTESSSNTFWQTPDDALMALASCYDALQSNQLYNSDQYSLGPLYMDCISDNGGHFNWSGWMEGYDMAMGIHTPSSSIIGSYWKDCYEVISRCNVLIANIDRVDMDASQKAIYQAEAKTIRALMYINLTMTYQDVPFLTAPLTIDEAECEKTDRAAIVAHVMTDLQDAAEVLPQNASSRGHITKGAALSLLGRVALYNEKWDDAIAAYKQVQGLGYSLDPSYAKLFTQSGETSPEIIFAVRYEGPGMSEGAAFNAHWNTPLEAMNGTIDLADAYYCKDGKPTTDTKIAELNGGGGLDVSKPNPAHFENRDPRLYSTLFVPGMLWNGKGGIDTSASNPYANVYGGAAASLSTVYVYKYFDPTDTSNSWDNGQDFYVVRYAEVLLSLAEAMVQKGGYVYSDVTALVNEVRQRADVNMPTVEEVEGTSLSKDELLEVIKHERRVELAFEGLRLFDLYRWKELDKAVANIENERTMYGLAYEARKFNGERDYVWPLPTAELDTNKKLVQHDLWK,glycan array binding signal (z-score),[1],0.476
same,glycan array binding signal (z-score),[2],-0.195
same,glycan array binding signal (z-score),[3],-0.34
same,glycan array binding signal (z-score),[4],-0.094
same,glycan array binding signal (z-score),[5],0.474
same,glycan array binding signal (z-score),[6],-0.132
same,glycan array binding signal (z-score),[7],0.017
same,glycan array binding signal (z-score),[8],-0.018
same,glycan array binding signal (z-score),[9],0.087
same,glycan array binding signal (z-score),[10],-0.161
same,glycan array binding signal (z-score),[11],-0.239
same,glycan array binding signal (z-score),[12],-0.192
same,glycan array binding signal (z-score),[13],-0.46
same,glycan array binding signal (z-score),[14],2.71
same,glycan array binding signal (z-score),[15],0.489
same,glycan array binding signal (z-score),[16],0.282
same,glycan array binding signal (z-score),[17],0.227
same,glycan array binding signal (z-score),[18],-0.058
